# Experimental data: PubChem BioAssay AID761 (NMMLSC, 2007)
# In all, about 190,000 compounds went through this assay and about 400 (0.21%) were called active. This list was built around the results that the source calls inconclusive (neither active nor inactive); the mix of calls is not that of the screen.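 Rule for the calls: active = percent activity GTP binding at least 20 points away from the 100% baseline, either down as inhibitor or up as activator; inconclusive = compound flagged as likely green fluorescent from well-wide comparison; inactive = the rest.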
# Biological target: Cell division control protein 42 homolog (Homo sapiens) (UniProt P60953)
# Assay: wildtype Cdc42 fluorescent GTP binding changes, either direction – biochemical, multiplex bead flow cytometry, Bodipy-GTP, primary screen (AID 761);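 note: median bead fluorescence of bound Bodipy-FL-GTP at 100 nM; 0% = excess unlabeled GTP control and 100% = no compound control; below 100% means less GTP binding so inhibitor and above means activator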
# Details: GST-Cdc42 beads, at 10 µM, actives lie on both sides
# UniProt P60953, sequence (P60953 whole entry, looked up): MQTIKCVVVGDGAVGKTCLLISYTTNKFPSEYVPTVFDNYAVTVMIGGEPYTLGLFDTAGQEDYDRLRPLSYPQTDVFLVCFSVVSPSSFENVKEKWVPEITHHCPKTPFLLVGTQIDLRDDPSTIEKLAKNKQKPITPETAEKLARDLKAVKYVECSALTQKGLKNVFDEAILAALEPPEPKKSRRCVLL
row,SMILES,percent activity (GTP binding)
1,CC(=O)NC(CC(=O)Nc1ccc(S(=O)(=O)N2CCCC2)cc1)c1ccccc1 (configuration not stated),inconclusive: 109%
2,C=CCC1(CC=C)CCCN1C(=O)CC1C(=O)NCCN1Cc1ccccc1OC (configuration not stated),inactive: 99%
3,CCOC(=O)c1cncc(C(=O)O)c1,inactive: 107%
4,CN1C(=O)c2ccccc2N(C)C1c1ccc2c(c1)OCO2 (configuration not stated),inactive: 100%
5,CCc1nnc(NC(=O)CSc2nnc3c4ccccc4n(C)c3n2)s1,inconclusive: 90%
6,COC(=O)c1cc(NC(=O)c2ccc(F)cc2)cc(C(=O)OC)c1,inactive: 99%
7,O=C1CSC(c2ccccn2)N1c1ccc(F)cc1F (configuration not stated),inactive: 98%
8,Cc1ccc(CCNC(=O)CN(C)S(=O)(=O)c2cnc[nH]2)cc1,inconclusive: 105%
9,CCOc1ccccc1C(=O)Nc1cccc(-c2ccc3nncn3n2)c1,active: 73%
10,COc1ccc(C(=O)Nn2c(SCC(=O)c3ccccc3)nc3ccccc3c2=O)cc1,inconclusive: 75%
11,COc1ccc(-n2c(C)cc(C(=O)Cn3nc(C(=O)O)c4ccccc4c3=O)c2C)cc1,inactive: 83%
12,CCCCCSc1nc2c(cnn2-c2ccccc2)c(=O)[nH]1,inconclusive: 97%
13,COc1ccc(C2=Nc3cccc4cccc(c34)N2)cc1,inconclusive: 105%
14,CC(=O)c1cn(CC(=O)NCC2CCCO2)c2ccccc12 (configuration not stated),inconclusive: 97%
15,Cc1ccc2oc(=O)c3cc(C(=O)Nc4cc(-c5cccc(F)c5)no4)sc3c2c1,inactive: 97%
16,CCC(C)NS(=O)(=O)c1ccc(OCC(=O)NCc2ccccn2)cc1 (configuration not stated),inconclusive: 92%
17,CC(C)(C)NC(=O)Cn1nnc(-c2ccccc2Cl)n1,inconclusive: 102%
18,Clc1ccc(-c2ccc(/C=N/Nc3nncc(-c4ccccc4)n3)o2)cc1,inactive: 98%
19,CN1CCN(C(=O)CC2(CC(=O)O)CCCC2)CC1,inactive: 101%
20,c1ccc(C(c2ccccc2)N2CCN(c3nc4ccccc4n4cnnc34)CC2)cc1,inconclusive: 91%
21,FC(F)(F)c1cc(-c2ccc(Cl)cc2)nc2ncnn12,inconclusive: 107%
22,CCC(=O)NC(C)c1nc2ccccc2n1C (configuration not stated),inconclusive: 105%
23,COc1ccc2c(c1)c1ncn(Cc3ccco3)c(=O)c1n2C,inconclusive: 92%

row,SMILES,percent activity (GTP binding)
1,CC(C)C(=O)Nc1ccc(NC(=S)NC(=O)c2cc3ccccc3o2)cc1,inconclusive: 100%
2,NS(=O)(=O)c1ccc(NC(=O)CN2C(=O)C3C4C=CC(C4)C3C2=O)cc1 (configuration not stated),inactive: 94%
3,CCCCn1nc2cc(C(=O)NCc3ccc(OC(F)(F)F)cc3)ccc2c1OC,inconclusive: 110%
4,CCc1ccc(C(=O)COC(=O)c2cnc(C)cn2)cc1,inconclusive: 96%
5,O=C(CSc1ncnc2ccccc12)NCc1ccc2c(c1)OCO2,inactive: 96%
6,NC(=O)C1(N2CCCCC2)CCN(C(=S)Nc2cc(F)cc(F)c2)CC1,inactive: 96%
7,CCS(=O)(=O)Nc1cccc(-c2ccc3nnc(C)n3n2)c1,inconclusive: 92%
8,CCOC(=O)C1=NOC2C(=O)N(c3ccc(Cl)cc3Cl)C(=O)C12 (configuration not stated),inconclusive: 93%
9,Cc1cc(S(=O)(=O)n2ccnc2)c(Cl)cc1Cl,inactive: 95%
10,CCCCN1C2=NCCCN2c2cc(C)c(C)cc21,inconclusive: 102%
11,COc1cc(/C=C/CN2CCN(CCC(C)C)C(CCO)C2)ccc1O (configuration not stated),inactive: 96%
12,COc1ccc(-c2c3c(nc4sc5c(=O)[nH]c(C)nc5c24)CCC3)cc1,inactive: 81%
13,CC(C)N1CCN(CC#Cc2ccccc2)CC1CCO (configuration not stated),inactive: 98%
14,O=C(CNC(=O)c1ccco1)OCC(=O)c1ccc(Cl)cc1Cl,inconclusive: 96%
15,Cc1ccc(C(=O)c2ccccc2C(=O)OCC(=O)NC(C)(C)C)cc1,inactive: 96%
16,CCc1ccc(NC(=O)Cn2c3[n+](c4c(F)c(F)ccc42)CCCCC3)cc1,inactive: 98%
17,COc1cccc(N2CCN(C(=O)c3cccn4c(=O)c5c(C)c(C)sc5nc34)CC2)c1,inconclusive: 79%
18,Cc1cc(N2CCCC2=O)cc(C)c1S(N)(=O)=O,inconclusive: 103%
19,CCN(CC)c1ccc(/C=N/OCC(=O)Nc2cccc(C)c2)cc1,inconclusive: 109%
20,O=C(O)CCc1ccc(-c2ccccc2)n1NC(=O)c1ccco1,inconclusive: 104%
21,NC(=O)c1nnsc1Sc1c(C(N)=O)nnn1-c1cccc(N)c1,inactive: 96%
22,COC(=O)c1cccc(Nc2cc(C)nc(-c3ccccc3O)n2)c1,inconclusive: 84%
23,Cc1cc(NC(=O)C2=C(O)c3ccccc3S(=O)(=O)N2C)no1,inactive: 100%

row,SMILES,percent activity (GTP binding)
1,CCn1c(COc2cccc(C)c2)nnc1SCC(=O)N1CCCC1,inconclusive: 105%
2,O=C(Cn1ccc([N+](=O)[O-])n1)Nc1ccccn1,inactive: 96%
3,Cc1cccc(Cc2c(C)nc3nc(SCC(=O)O)nn3c2C)c1,active: 66%
4,O=c1c2ccccc2nc2c3ccccc3c(NCCN3CCOCC3)nn12,inconclusive: 80%
5,O=C(NC1(C(F)(F)F)NC(=O)N(Cc2cccnc2)C1=O)c1cccs1 (configuration not stated),inconclusive: 112%
6,O=C(Nc1ccc(Cl)cc1)/C(=C/c1ccc([N+](=O)[O-])cc1)c1nc2ccccc2s1,inactive: 97%
7,Brc1ccc(/C=N/Nc2ccc3ccccc3n2)cc1,inconclusive: 90%
8,COc1cc(C(=O)NCc2nnc(SCC(=O)N3CCCCC3)o2)cc(OC)c1OC,inconclusive: 104%
9,Cc1cccc(NC(=O)NC(=O)c2ccccc2)n1,inconclusive: 95%
10,CCCNS(=O)(=O)/C=C/c1ccccc1,inconclusive: 97%
11,O=C(O)c1cn(C2CC2)c2cc(N3CCN(S(=O)(=O)c4ccc5c(c4)OCCO5)CC3)c(F)cc2c1=O,inactive: 98%
12,CN(C(=O)COC(=O)c1cc(NS(=O)(=O)c2cc([N+](=O)[O-])ccc2Cl)ccc1O)C1CCCCC1,inactive: 95%
13,CCOC(=O)C1=C(C)Nc2nc(SCC)[nH]c(=O)c2C1c1ccncc1 (configuration not stated),inactive: 98%
14,CC1(C)CC(CCNS(=O)(=O)c2ccccc2)(c2ccccc2)CCO1 (configuration not stated),inconclusive: 102%
15,O=C(Nc1ccc2sc3ccccc3c(=O)c2c1)c1ccccc1Cl,inconclusive: 87%
16,Cc1ccc(C(=O)Nc2ccc3c(c2)CCC3)o1,inconclusive: 106%
17,C=CCNC(=O)/C(=C\c1ccc(OC)cc1)NC(=O)c1ccc([N+](=O)[O-])cc1,inconclusive: 91%
18,Cc1ccc(C2=NN(C3=NN=C(N)Cc4ncnn43)C(O)(C(F)(F)F)C2)cc1 (configuration not stated),inconclusive: 96%
19,CCn1cc(CNC(=O)c2cc(COc3ccc(F)cc3Cl)on2)cn1,inconclusive: 85%
20,CCN(CC)S(=O)(=O)c1cc(NC(=O)CCCOc2ccc(C(C)=O)cc2)ccc1C,inactive: 101%
21,Cc1cccc(NC(=O)NNC(=O)c2sccc2-n2cccc2)c1,inactive: 102%
22,Cc1cc(NC(=O)c2cccs2)ncc1NC(=O)c1cccc(F)c1,inconclusive: 96%
23,COC(=O)c1cc(OC)c(OC)cc1NC(=O)Nc1cccc(C(C)=O)c1,inconclusive: 95%

row,SMILES,percent activity (GTP binding)
1,CCCN1C(=O)/C(=C/c2c(NCCCOCC)nc3c(C)cccn3c2=O)SC1=S,inconclusive: 109%
2,CSc1nc(N2CCOCC2)c2sccc2n1,inconclusive: 93%
3,Cc1c(CCC(=O)O)c(=O)oc2cc3occ(-c4ccc(F)cc4)c3cc12,inactive: 80%
4,CN(c1ccccc1)S(=O)(=O)c1ccc(Cl)c(C(=O)OCC(=O)N2CCOCC2)c1,inactive: 96%
5,O=C(N/N=C/c1ccc([N+](=O)[O-])o1)c1cn(-c2ccccc2)nc1-c1ccc(Cl)cc1,inactive: 81%
6,O=C(c1cccc(OC(F)F)c1)N1CCN(c2ncccn2)CC1,inconclusive: 107%
7,CCN1C(=O)/C(=C/c2cnn(CC)c2C)SC1=S,inconclusive: 106%
8,O=C(O)CCCCCNS(=O)(=O)c1cccc2c1C(=O)c1ccccc1C2=O,inconclusive: 90%
9,CCOC(=O)Cn1nnnc1C(CC)N(Cc1cccs1)Cc1cc2cc(C)ccc2[nH]c1=O (configuration not stated),inactive: 100%
10,CCOC(=O)N1CCN(C(=O)/C(=C/c2cccc3ccccc23)NC(=O)c2ccc(OC)cc2)CC1,inconclusive: 105%
11,O=C(COc1ccc(F)cc1)N1CCC(c2ccccc2)C1 (configuration not stated),inconclusive: 104%
12,COc1cccc(NC(=O)CN(C)C(C)C(=O)Nc2ccc(C(C)=O)cc2)c1 (configuration not stated),inconclusive: 94%
13,Cc1cc(C(C)(C)C)oc1C(=O)NCCCNC(=O)c1oc(C(C)(C)C)cc1C,inconclusive: 88%
14,O=c1[nH]c2cc3c(cc2cc1CN(Cc1cccnc1)C(=S)NCc1ccco1)OCCO3,inconclusive: 95%
15,CC(=O)N1c2ccccc2C(=O)OC1c1cccnc1 (configuration not stated),inconclusive: 105%
16,COc1cc(/C=C2\SC(c3ccccc3)=NC2=O)cc(Cl)c1O,active: 78%
17,COC(=O)c1sccc1NC(=S)N1C(C)CCCC1C (configuration not stated),inactive: 96%
18,CCOC(=O)CN1C=C(c2ccc3ccccc3n2)C(C[N+](=O)[O-])c2ccccc21 (configuration not stated),inconclusive: 109%
19,CCOC(=O)c1sc(NCc2ccco2)c(-c2nc3ccccc3s2)c1N,inconclusive: 108%
20,CN(C)S(=O)(=O)c1cccc(-c2nnc(SCCNCCO)n2-c2ccc(F)cc2)c1,inactive: 95%
21,CCC(Sc1nc(=O)cc(N)n1CCc1ccccc1)C(=O)Nc1cc(C)on1 (configuration not stated),inconclusive: 103%
22,COc1cc(-c2nc(-c3ccncc3)no2)cc(OC)c1OC,inconclusive: 103%
23,CC1Sc2ccccc2N(CC(=O)N(C(C)C)C(C)C)C1=O (configuration not stated),inconclusive: 96%
